PMC4336329 (PLoS ONE, 2015)
Out of some 310,000 compounds screened, about 14,000 (4.5%) showed an effect of 50% or more. The effect is printed as a negative number. The list shows a part of the results.

The compounds below were run against human ether-à-go-go-related gene (hERG) potassium channel (human, UniProt Q12809) (assay: primary screen, population patch clamp on CHO cells stably expressing hERG).
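Also: peak tail current of the secondary pulse compared with the same well before compound.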

Chain of human ether-à-go-go-related gene (hERG) potassium channel (Q12809 whole entry, looked up): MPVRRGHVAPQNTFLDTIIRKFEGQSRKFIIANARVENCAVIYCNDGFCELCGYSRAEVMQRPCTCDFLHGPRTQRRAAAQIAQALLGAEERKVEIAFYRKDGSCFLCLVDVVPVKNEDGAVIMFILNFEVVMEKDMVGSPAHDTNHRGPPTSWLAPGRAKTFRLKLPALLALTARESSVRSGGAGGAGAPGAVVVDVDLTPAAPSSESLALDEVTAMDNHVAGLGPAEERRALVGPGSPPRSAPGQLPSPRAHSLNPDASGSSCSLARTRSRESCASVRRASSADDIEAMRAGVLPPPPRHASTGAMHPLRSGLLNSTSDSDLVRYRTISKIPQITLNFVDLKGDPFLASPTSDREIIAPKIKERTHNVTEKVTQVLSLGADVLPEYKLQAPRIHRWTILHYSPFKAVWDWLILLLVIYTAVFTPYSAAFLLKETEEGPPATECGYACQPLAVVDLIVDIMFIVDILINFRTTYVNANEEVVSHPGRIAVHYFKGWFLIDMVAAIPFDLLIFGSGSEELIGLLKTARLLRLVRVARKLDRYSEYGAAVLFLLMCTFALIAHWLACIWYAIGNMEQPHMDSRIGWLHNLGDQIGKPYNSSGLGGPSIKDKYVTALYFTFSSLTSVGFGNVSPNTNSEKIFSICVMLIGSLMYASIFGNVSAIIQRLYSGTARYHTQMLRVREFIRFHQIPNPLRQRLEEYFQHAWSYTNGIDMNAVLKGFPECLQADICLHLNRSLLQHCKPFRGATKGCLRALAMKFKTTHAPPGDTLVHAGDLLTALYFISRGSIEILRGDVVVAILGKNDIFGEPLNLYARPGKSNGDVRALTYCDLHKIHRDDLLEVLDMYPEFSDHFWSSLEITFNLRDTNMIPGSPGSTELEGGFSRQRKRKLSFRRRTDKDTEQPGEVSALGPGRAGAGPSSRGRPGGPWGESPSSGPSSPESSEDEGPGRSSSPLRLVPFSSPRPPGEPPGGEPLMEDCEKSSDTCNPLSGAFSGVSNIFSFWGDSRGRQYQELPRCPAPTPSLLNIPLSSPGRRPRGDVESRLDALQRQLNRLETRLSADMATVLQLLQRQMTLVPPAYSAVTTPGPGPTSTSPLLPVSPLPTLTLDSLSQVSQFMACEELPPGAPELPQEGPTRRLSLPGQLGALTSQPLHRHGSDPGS

| SMILES | hERG current change (%, negative = inhibition) at 10uM |
| --- | --- |
| C=CCn1c(O)c(C(CC)=NCCN2CCN(C(=S)NC)CC2)c(=O)[nH]c1=O | 0.681% |
| Cc1ccc(C(OCC(O)CNCc2ccc(F)cc2)c2ccccc2)cc1.O=C(O)C(=O)O (centres unmarked) | -75.7% |
| O=C(Nc1ccc(F)c(F)c1)c1ccccc1 | 7.11% |
| CCOC(=O)C(NC(=O)CC)(Nc1ccc(S(=O)(=O)Nc2ncccn2)cc1)C(F)(F)F (centres unmarked) | 22.5% |
| Cn1cccc1C1C=C(c2ccc(C(C)(C)C)cc2)Nc2ncnn21 (centres unmarked) | -2.52% |
| Cc1ccc(NC(=O)C(C)OC(=O)c2n[nH]c3ccccc23)cc1 (centres unmarked) | -31.9% |
| Clc1ccc(/C=N/c2c(-c3ccco3)nc3ccccn23)cc1 | 13% |
| COc1cc(-c2c(-c3ccc4c(c3)OCO4)noc2C)ccc1F | 3.58% |
| CC1CN(C(=O)c2cccc(S(=O)(=O)Nc3cc(Cl)ccc3Cl)c2)CC(C)O1 (centres unmarked) | -0.988% |
| Cc1c(=O)n(OCc2ccccc2)c2ccccc2[n+]1[O-] | -10.2% |
| Cc1ccc(C)c(NC(=O)CCN2CCN(c3ccccc3F)CC2)c1 | -25.1% |
| Cc1nc(SCCO)c([N+](=O)[O-])[nH]1 | 21% |
| COc1cc(/C=C/c2ccc3c([N+](=O)[O-])cccc3n2)ccc1OCC(=O)O | 2.25% |
| O=C(CSc1nc2ccccc2c(=O)n1CCCN1CCOCC1)c1c[nH]c2ccccc12 | -54% |
| CC(=O)c1c(C)[nH]c(C(=O)CN2C(=O)NC(C)(CCC(C)C)C2=O)c1C (centres unmarked) | 11.1% |
| O=C(NCc1cccc(C(F)(F)F)c1)c1ccc2c(c1)OCCO2 | 9.52% |
| Cc1ccc(S(=O)(=O)N2CCC(C(=O)NN3CCCCC3)CC2)cc1 | 4.16% |
| CCc1ccc(N2CCN(C(=O)c3ccc(OC)c(OC)c3)CC2)cc1 | -28.4% |
| CCCn1nc(C(=O)N2CCCc3ccccc32)c2ccccc2c1=O | -4.32% |
| O=C(NCc1ccc2c(c1)OCO2)C1CCC(CNc2c(N3CCCC3)c(=O)c2=O)CC1 (centres unmarked) | 15.8% |
| COc1ccc(CN2CCC(C(=O)N3CCN(c4ccccc4F)CC3)CC2)cc1OC | -37% |
| CC(C)N(Cc1cnn(C)c1)Cc1nc(Cc2ccccc2Cl)no1 | 10.8% |

| SMILES | hERG current change (%, negative = inhibition) at 10uM |
| --- | --- |
| CC(C)(C)c1ccc(C(=O)Nc2ccc(S(=O)(=O)Nc3cnc4ccccc4n3)cc2)cc1 | -45.1% |
| O=C(CSc1nccc(-c2cccs2)n1)Nc1cccc(Cl)c1Cl | 3.4% |
| CC(=O)Oc1ccc(-c2ccc(C(=O)OCC(=O)N(C)CC(=O)Nc3ccccc3Cl)cc2)cc1 | -68.9% |
| O=C(NC(Cc1c[nH]c2ccccc12)C(=O)N/N=C/c1ccc(Cl)cc1)c1cccs1 (centres unmarked) | 5.22% |
| CC(C)=NOc1cc(NC(=O)CCl)cc([N+](=O)[O-])c1 | -27.1% |
| Oc1cccc(-n2nnnc2SCc2ccccc2F)c1 | 7.33% |
| NCCc1c[nH]c2ccccc12 | 18% |
| O=C(NCCN=C1NS(=O)(=O)c2ccccc21)c1ccccc1 | 16.6% |
| Cc1ccccc1Cn1ccc(NC(=O)c2nc3ncccn3n2)n1 | 4.08% |
| Cc1c(C(=O)N(Cc2ccco2)Cc2cccs2)oc2ccccc12 | -34.2% |
| NS(=O)(=O)c1ccc(CNC(=O)/C=C/c2cccc(Cl)c2)cc1 | -6.94% |
| CCOC(=O)C1=C(C)N(C)C(=S)NC1c1ccc(Cl)cc1Cl (centres unmarked) | 9.9% |
| FC(F)(F)c1nc(NCc2ccccc2)c2nnn(Cc3ccccc3)c2n1 | 12.7% |
| CN(C)c1cccc2c(C#N)ccc(N(C)C)c12 | -42.4% |
| CC(C)c1oc(=O)cc2c1[C@@H](O)[C@H]1OC(=O)[C@@]3(C)C[C@@H](O)[C@@H](O)[C@@]2(C)C13 (some centres unmarked) | 15.8% |
| O=C(Nc1nc(-c2cc(F)ccc2F)cs1)c1ccccn1 | 22.6% |
| COc1ccccc1C(=O)NC(=O)COC(=O)c1ccc(Cl)nc1 | -3.27% |
| CCOc1ccc(NC(=S)C(C#N)=C2N(C)c3ccccc3N2C)cc1 | -38.8% |
| CC1Cc2cc(-c3csc(NC(=O)Cc4ccccc4)n3)ccc2N1S(C)(=O)=O (centres unmarked) | -3.84% |
| COc1ccc(S(=O)(=O)NCc2cccs2)cc1 | 2.67% |
| CN1C(=O)C(O)(C2OC(C)(C)CCC2=O)c2ccccc21 (centres unmarked) | 9.08% |
| COc1cccc(C2(CSc3nnc(-c4cc(OC)c(OC)c(OC)c4)o3)OCCO2)c1 | -12.2% |
